Test results reported in PubChem BioAssay AID1345083 (National Center for Advancing Translational Sciences (NCATS), 2018).
Hit rate of the full screen: of about 94,000 compounds, about 6,200 (6.6%) were called active. Inconclusive results, whose numbers are uncertain, are shown with a selection of clear calls. Calls come from the whole dose curve; as a rule, active = well fitted inhibition curve with a large enough effect; inconclusive = small, poorly fitted or top-dose-only effect; inactive = flat fitted curve, though single readings scatter. Potencies of inconclusive entries are doubtful fits and often do not repeat.

Assay: Cytotoxic Profiling in HEK 293 Cell Line of Diverse Libraries Using Quantitative High-Throughput Screening; note: nearly all actives have a fitted effect of over 60% in size
Conditions: HEK 293 viability, ATP luminescence (CellTiter-Glo), 48-72 h; series mostly up to 115 µM
Method in brief: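 Luminescence from cellular ATP, measured with CellTiter-Glo, indicates HEK 293 viability. Cells plated at 250 cells/well are treated with compound for 48 or 72 hr at 37 degree Celsius before reagent addition.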
Potency is the fitted concentration of half-maximal effect; tags give direction and shape of the fitted curve.

Compound	Potency
COc1ccc(C(=O)N2CCc3ccc(C(=O)NCCC(C)C)cc32)cc1	inconclusive: 50.1 µM [inhibitor, partial curve, poor fit]
COc1ccc(CCNC(=O)c2nc3cccnc3n(CC(C)C)c2=O)cc1	inconclusive: 56.2 µM [inhibitor, partial curve, poor fit]
COc1ccc2nc3n(c2c1)[C@@H](CNCc1ccccc1)COC3	inconclusive: 63.1 µM [inhibitor, full curve, poor fit]
O=C(NCCN1CCOCC1)c1c(-c2ccccc2)cc(=O)n2c1CCC2	inactive
O=C(c1ccccc1)N1CCC(c2nn(-c3ccccc3)c(=O)[nH]2)CC1	inconclusive: 89.1 µM [inhibitor, partial curve, poor fit]
OCc1ccc(-c2cc(-c3cccnc3)c3cncn3c2)cc1	inactive
CC(C)c1cc(C(=O)N[C@@H]2COCC[C@@H]2Oc2cccc(F)c2)nc(N)n1	inconclusive: 100 µM [inhibitor, single point]
O=C(c1ccc(Cl)cc1)N1CCN(c2cc(-c3ccc(F)cc3)[nH]n2)CC1	inconclusive: 44.7 µM [inhibitor, partial curve, poor fit]
O=C(c1ccoc1)N1CC(Oc2ccc(-c3nc(-c4ccccc4)no3)cc2)C1	inconclusive: 15.8 µM [inhibitor, full curve, poor fit]
CCc1cccc(NC(=O)C2CCN(C(=O)c3ncn4c3COC(c3ccc(F)cc3)C4)CC2)c1 (stereo not drawn)	inconclusive: 70.8 µM [inhibitor, single point]
O=C(c1ccccc1OCC1CCCN(Cc2ccc(F)cc2Cl)C1)N1CCOCC1 (stereo not drawn)	inconclusive: 89.1 µM [inhibitor, single point]
CC(C)C[C@@H]1N[C@H](C(=O)NCC2CC2)Cc2cn(Cc3cccnc3)c3cccc1c23	inconclusive: 28.2 µM [inhibitor, partial curve, poor fit]
Cc1nc(C)c(C)c(N2CCCC(c3nccn3Cc3ccccc3)C2)n1 (stereo not drawn)	inconclusive: 50.1 µM [inhibitor, partial curve, poor fit]
COc1cc(C(=O)NC2CCN(c3cc(-c4cccs4)[nH]n3)CC2)cc(OC)c1OC	inconclusive: 44.7 µM [inhibitor, partial curve, poor fit]
CCOc1ccccc1C1NC(=O)N(CC(=O)Nc2cccc(C(F)(F)F)c2)C2=C1C(=O)OC2 (stereo not drawn)	inconclusive: 50.1 µM [inhibitor, partial curve, poor fit]
COc1ccc(C(=O)N2CCCN(c3nnc4ccc(Cl)cn34)CC2)cn1	inactive
CC(=O)N1CCc2[nH]cnc2C12CCN(Cc1nccn1C)CC2	inactive
Cc1nc(CN2Cc3nc(-c4ccc5c(c4)OCO5)ccc3OCC2=O)cs1	inconclusive: 89.1 µM [inhibitor, partial curve, poor fit]
CC1CCC2(CC1)NC(=O)N(CC(=O)Nc1cccc(C(F)(F)F)c1)C2=O (stereo not drawn)	active: 25.1 µM

Compound	Potency
COc1ccccc1Cn1c(=O)c(C(=O)N2CCN(C(=O)C3CCCC3)CC2)nc2cccnc21	inconclusive: 89.1 µM [inhibitor, single point]
Cc1noc(-c2cccc(OC3CN(C(=O)Nc4cccc(F)c4)C3)c2)n1	inconclusive: 44.7 µM [inhibitor, partial curve, poor fit]
CC(C)Oc1ccc2c(NC(=O)c3ccon3)nn(Cc3ccccc3)c2c1	inconclusive: 39.8 µM [inhibitor, partial curve]
Cc1ccc(NC(=O)N2CCCC(Cn3cnc4cccnc43)C2)cc1Cl (stereo not drawn)	inconclusive: 50.1 µM [inhibitor, partial curve, poor fit]
COc1ccc(-c2cc3c(nc2OC)nc(CC2CC2)n3C)cc1OC	inconclusive: 79.4 µM [inhibitor, partial curve]
CC(C)CNC(=O)c1nc2sccn2c1-c1cccnc1	inactive
Cc1cccc(C)c1CN1CCC2(CC1)Cc1ccccc1CNC2=O	inconclusive: 112 µM [inhibitor, single point]
CN(Cc1cccn1C)C1CCOc2ccccc21 (stereo not drawn)	inconclusive: 126 µM [inhibitor, single point]
CCn1cnnc1-c1nn(C)c2c1CN(C(=O)c1nn(C)c3ccccc13)CC2	inconclusive: 89.1 µM [inhibitor, single point]
O=C([C@@H]1C[C@H](Oc2cccnc2)CN1)N1CCOCC1	inactive
CN(c1ccccc1)c1cc(=O)c2ccnc(-c3ccccc3O)c2o1	inconclusive: 44.7 µM [inhibitor, partial curve, poor fit]
O=C(Nc1ccc2c(c1)C(=O)N1CCC[C@H]1C(=O)N2)c1cc(-c2ccccn2)n[nH]1	inconclusive: 17.8 µM [inhibitor, full curve, poor fit]
COc1ccc(CN2C(=O)COC[C@H]2C(=O)Nc2ccc(C(C)C)cc2)c(OC)c1	inconclusive: 79.4 µM [inhibitor, partial curve, poor fit]
Cc1oc2c(c1C(=O)N1CCN(c3ccccc3)CC1)CN(Cc1ccc(F)cc1)CC2	inconclusive: 50.1 µM [inhibitor, partial curve, poor fit]
OCC1(CN2CCCC2)CCN(Cc2ccccc2F)CC1	inconclusive: 22.4 µM [inhibitor, partial curve, poor fit]
O=C(CCC1CCN(C(=O)c2ccccc2)CC1)Nc1ccccc1F	inconclusive: 79.4 µM [inhibitor, single point]
Cc1ccc(CNC(=O)c2ccc3c(c2)CN(CCCc2ccc(C)o2)CCO3)cc1	inconclusive: 50.1 µM [inhibitor, partial curve, poor fit]
CCCNC(=O)N1CCN2C(=O)c3cc(-c4ccccc4F)ccc3NC(=O)[C@@H]2C1	active: 100 µM
O=C(c1n[nH]c2c1CCCC2)N1CCC(n2cc(-c3nc(-c4ccccc4)no3)nn2)CC1	inconclusive: 39.8 µM [inhibitor, partial curve, poor fit]
